This note sets out measurements from ChEMBL document CHEMBL4888484, “Replenishing the malaria drug discovery pipeline: Screening and hit evaluation of the MMV Hit Generation Library 1 (HGL1) against asexual blood stage Plasmodium falciparum ,using a nano luciferase reporter read-out” (2022).

By % Inhibition is commonly meant the relative decrease from the control value, in per cent.

SMILES strings stand for the structures. Among all 150,000 compounds or so, about 540 (0.36%) showed an effect of 50% or more. Some of the results follow.

The assay concerns Plasmodium falciparum. Put plainly: Primary screen in NF54 nanoGlo assay, in single point, at 2uM, 72h; a lower Z score goes with more inhibition. Type of assay: functional, Erythrocyte. The note with it: timepoint 72 hour.
Regarding `Cc1cc(=O)[nH]c(Cn2cnc(-c3ccccc3)c2-c2ccc(N(C)C)nc2)n1`, the “% Inhibition” value was -19% and the Z score worked out at 1.87.

As to `Cc1noc(CN(C)C(=O)C2C3C(=O)N(CC(C)(C)C)C[C@@]34C=C[C@@H]2O4)n1` (some centres undefined), the “% Inhibition” value is recorded as -8% and the Z score is 1.36.

As to `Cc1cccc(N2CCN(C(=O)c3ccc(Cn4cncn4)cc3)CC2)c1C`, the “% Inhibition” value is -17% and the Z score is 1.65.

Regarding `O=C(Nc1ccccc1)c1ccc(Oc2ccccc2)cc1`, the “% Inhibition” value is on record as -9% and the Z score is listed as 1.33.

As for `CCC(c1ccc(F)cc1)c1nnc(-c2cccc(C3CCOC3)c2)o1` (centres undefined), the “% Inhibition” value was -21% and the Z score amounted to 2.27.

Regarding `CNC(=O)Cc1nc(CNc2ccc(F)cc2OCC2CC2)cs1`, the “% Inhibition” value is reported as -13% and the Z score is on record as 1.5.

`CCc1noc(C)c1C(=O)N(C[C@H](O)c1ccccc1)C1CCCCC1`: the “% Inhibition” value is -7% and the Z score worked out at 1.46.

Consider `CC(=O)N1c2ccccc2C[C@H]1c1nc(-c2cc(OC(F)F)ccc2F)no1`, for which the “% Inhibition” value was determined as 8% and the Z score is on record as -1.35.

As for `OCC1(CCCc2ccccc2)CCN(C2Cc3ccccc3C2)CC1`, the “% Inhibition” value is reported as -15% and the Z score worked out at 1.33.

On to `Cc1ccc(F)cc1C(=O)N1C[C@@H]2CC[C@H]1CN(S(=O)(=O)N(C)C)C2`, for which the “% Inhibition” value is given as -10% and the Z score amounted to 0.88.

As to `CCCNC(=O)CNC(=O)CCc1ccco1`, the “% Inhibition” value was -9% and the Z score is 0.92.

Take `N#Cc1ccccc1Cn1cncc(-c2ccccc2)c1=O`: the “% Inhibition” value is given as -10% and the Z score was found to be 1.62.

With `CN1CCN(C(=O)c2cccc(CNc3ccncn3)c2)C[C@@]12CCOC2`, the “% Inhibition” value amounted to 2% and the Z score is -0.3.

As for `COCCn1ccc(NC(=O)Nc2ccncc2C)n1`, the “% Inhibition” value is listed as -14% and the Z score turned out to be 2.62.

As to `CCCNC(=O)[C@@H](NC(=O)c1ccc(OC)cc1)C1CCN(C(=O)CC(C)(C)C)CC1`, the “% Inhibition” value was 4% and the Z score was -0.58.

Take `C[C@@H](NC(=O)c1cc(N2CCNC(=O)C2)ccn1)C(F)(F)F`: the “% Inhibition” value was 4% and the Z score is -0.68.

As to `CC[C@@H](C(=O)O)N1CCOc2ccccc2C1`, the “% Inhibition” value was -8% and the Z score came out at 0.94.

Consider `COc1ccc(C(=O)Nc2ccc(N3CCCN(Cc4cc(OC)cc(OC)c4)C3=O)cc2)cc1`, for which the “% Inhibition” value is -14% and the Z score was determined as 1.61.

For the compound `C[C@H](Oc1ccccc1)C(=O)N1CCC(CCOc2cccnc2)CC1`, the “% Inhibition” value is listed as -14% and the Z score came out at 2.66.

In the case of `CN(Cc1nccn1CC(F)(F)F)C(=O)CN1Cc2ccccc2C1`, the “% Inhibition” value is 4% and the Z score is reported as -0.6.

As for `CCOC(=O)c1ccc2c(c1)nc(-c1ccccc1NS(=O)(=O)c1ccc(OCC)cc1)n2CC`, the “% Inhibition” value was -14% and the Z score is 2.

For the compound `O=C(CN1CCOC1=O)N1CCC2(CC1)CC(=O)N(C/C=C/c1ccccc1)C2`, the “% Inhibition” value is reported as -1% and the Z score was found to be 0.14.

As to `Nc1nn(-c2cc(C(=O)O)cc(S(=O)(=O)N3CCCCCC3)c2)c2ccc(F)cc12`, the “% Inhibition” value is on record as -19% and the Z score was found to be 2.04.

In the case of `CCn1c([C@H]2CCN(S(=O)(=O)c3c(C)noc3C)C2)nc2cccnc21`, the “% Inhibition” value is recorded as -9% and the Z score stood at 1.06.

In the case of `Cc1ccc2cc(C(=O)OCCc3cn[nH]c3)ccc2n1`, the “% Inhibition” value is reported as -18% and the Z score is 2.03.

For `Cc1n[nH]c(C)c1CCCNC(=O)Cc1ccncc1`, the “% Inhibition” value is recorded as -22% and the Z score came out at 2.84.

In the case of `Cc1[nH]c(-c2ccc(F)cc2)cc1C(=O)NC1CCCCC1C` (centres undefined), the “% Inhibition” value is 0% and the Z score is given as -0.05.

On to `Cc1ccccc1CN1CCCN(C(=O)Nc2nccs2)CC1`, for which the “% Inhibition” value is listed as -6% and the Z score turned out to be 1.22.

`CC(CC(=O)N1CCCC(c2nnn[nH]2)C1)c1ccccc1F` (centres undefined): the “% Inhibition” value is -2% and the Z score stood at 0.34.

In the case of `Cc1ccc([C@@H](NC(=O)N2CCCCCC2)C(Cl)(Cl)Cl)cc1F`, the “% Inhibition” value stood at 7% and the Z score was -0.93.

As for `N#Cc1c[nH]c(C(=O)NC2(c3nnc[nH]3)CCC2)c1`, the “% Inhibition” value is 2% and the Z score is listed as -0.19.

On to `C[C@@H](c1nccs1)N(C)C(=O)CCN1CCCCO1`, for which the “% Inhibition” value is -9% and the Z score was determined as 0.86.

`CCc1cc(CN[C@@H](C)c2ccc(OC)cc2)on1`: the “% Inhibition” value was -9% and the Z score is 1.38.

For `C[C@@H](c1ccc(Cl)cc1Cl)N(C)Cc1cc(-c2ccco2)on1`, the “% Inhibition” value was -7% and the Z score is recorded as 0.71.

As to `CN(Cc1ccccc1)C(=O)Cn1cc(S(=O)(=O)Cc2cccc(Cl)c2)c2ccccc21`, the “% Inhibition” value is given as -9% and the Z score was 1.5.

For the compound `O=C(CCc1cccc(F)c1F)N(CC(F)(F)F)c1ccccn1`, the “% Inhibition” value was 4% and the Z score is recorded as -0.4.

Take `CC(C)(C)[C@H]1OCC[C@@H]1c1noc(-c2ccc3c(c2)CCCCC3=O)n1`: the “% Inhibition” value amounted to 23% and the Z score was -2.07.

Regarding `Cc1cc(C)cc([C@@H](O)COc2cc(C)c(C)nn2)c1`, the “% Inhibition” value was -8% and the Z score amounted to 1.19.

For the compound `CCn1c(C)nnc1CNC1CCCCC1n1cccn1` (centres undefined), the “% Inhibition” value is -1% and the Z score is on record as 0.17.

In the case of `Cc1ccc(O)c(CNc2ccc(S(=O)(=O)Nc3nccs3)cc2)c1`, the “% Inhibition” value was -3% and the Z score stood at 0.37.

Turning to `CNC(=O)Nc1ccc(Br)cc1-c1nc(C2CC2)no1`, the “% Inhibition” value is on record as -10% and the Z score was 1.1.

As for `CC[C@@H](C(=O)NCc1cnn2cccnc12)n1cccn1`, the “% Inhibition” value is reported as -13% and the Z score is 1.29.
